{"source": "the supplement of paper PMC11316812", "key": {"hTERT-HMEC": {"test_system": "hTERT-HMEC", "assay": "percentage of EdU-negative (G0-arrested) nuclei per well, 72 h; higher = more G0 arrest", "settings": "reference: sequence is the full UniProt precursor, the tested protein was the secreted form or ectodomain"}, "MCF7": {"test_system": "MCF7", "assay": "percentage of EdU-negative (G0-arrested) nuclei per well, 72 h; reference: sequence is the full UniProt precursor, the tested protein was the secreted form or ectodomain; higher = more G0 arrest"}, "[1]": {"settings": "protein concentration 0.0156325 µM"}, "[2]": {"settings": "protein concentration 0.156325 µM"}, "[3]": {"settings": "protein concentration 0.0102875 µM"}, "[4]": {"settings": "protein concentration 0.102875 µM"}, "[5]": {"settings": "protein concentration 0.0293625 µM"}, "[6]": {"settings": "protein concentration 0.293625 µM"}, "[7]": {"settings": "protein concentration 0.0225 µM"}, "[8]": {"settings": "protein concentration 0.0190475 µM"}, "[9]": {"settings": "protein concentration 0.190475 µM"}}, "note": "± gives the standard deviation of the averaged measurements.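 Note: secreted proteins added to cultured cells, EdU pulse at the end, nuclei found by Hoechst imaging, EdU status from nuclear versus surrounding ring intensity ratio, PBS as neutral control.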"}
{"sequence": "MGTSHPAFLVLGCLLTGLSLILCQLSLPSILPNENEKVVQLNSSFSLRCFGESEVSWQYPMSEEESSDVEIRNEENNSGLFVTVLEVSSASAAHTGLYTCYYNHTQTEENELEGRHIYIYVPDPDVAFVPLGMTDYLVIVEDDDSAIIPCRTTDPETPVTLHNSEGVVPASYDSRQGFNGTFTVGPYICEATVKGKKFQTIPFNVYALKATSELDLEMEALKTVYKSGETIVVTCAVFNNEVVDLQWTYPGEVKGKGITMLEEIKVPSIKLVYTLTVPEATVKDSGDYECAARQATREVKEMKKVTISVHEKGFIEIKPTFSQLEAVNLHEVKHFVVEVRAYPPPRISWLKNNLTLIENLTEITTDVEKIQEIRYRSKLKLIRAKEEDSGHYTIVAQNEDAVKSYTFELLTQVPSSILDLVDDHHGSTGGQTVRCTAEGTPLPDIEWMICKDIKKCNNETSWTILANNVSNIITEIHSRDRSTVEGRVTFAKVEETIAVRCLAKNLLGAENRELKLVAPTLRSELTVAAAVLVLLVIVIISLIVLVVIWKQKPRYEIRWRVIESISPDGHEYIYVDPMQLPYDSRWEFPRDGLVLGRVLGSGAFGKVVEGTAYGLSRSQPVMKVAVKMLKPTARSSEKQALMSELKIMTHLGPHLNIVNLLGACTKSGPIYIITEYCFYGDLVNYLHKNRDSFLSHHPEKPKKELDIFGLNPADESTRSYVILSFENNGDYMDMKQADTTQYVPMLERKEVSKYSDIQRSLYDRPASYKKKSMLDSEVKNLLSDDNSEGLTLLDLLSFTYQVARGMEFLASKNCVHRDLAARNVLLAQGKIVKICDFGLARDIMHDSNYVSKGSTFLPVKWMAPESIFDNLYTTLSDVWSYGILLWEIFSLGGTPYPGMMVDSTFYNKIKSGYRMAKPDHATSEVYEIMVKCWNSEPEKRPSFYHLSEIVENLLPGQYKKSYEKIHLDFLKSDHPAVARMRVDSDNAYIGVTYKNEEDKLKDWEGGLDEQRLSADSGYIIPLPDIDPVPEEEDLGKRNRHSSQTSEESAIETGSSSSTFIKREDETIEDIDMMDDIGIDSSDLVEDSFL", "values": [{"measurement": "percentage of EdU-negative", "setting": "hTERT-HMEC; [1]", "value": "4.84 ± 0.13", "unit": "%"}, {"measurement": "percentage of EdU-negative", "setting": "hTERT-HMEC; [2]", "value": "5.7 ± 0.39", "unit": "%"}, {"measurement": "percentage of EdU-negative", "setting": "MCF7; [1]", "value": "27.107 ± 0.0077", "unit": "%"}, {"measurement": "percentage of EdU-negative", "setting": "MCF7; [2]", "value": "26.6 ± 2.6", "unit": "%"}]}
{"sequence": "MGSNLSPQLCLMPFILGLLSGGVTTTPWSLARPQGSCSLEGVEIKGGSFRLLQEGQALEYVCPSGFYPYPVQTRTCRSTGSWSTLKTQDQKTVRKAECRAIHCPRPHDFENGEYWPRSPYYNVSDEISFHCYDGYTLRGSANRTCQVNGRWSGQTAICDNGAGYCSNPGIPIGTRKVGSQYRLEDSVTYHCSRGLTLRGSQRRTCQEGGSWSGTEPSCQDSFMYDTPQEVAEAFLSSLTETIEGVDAEDGHGPGEQQKRKIVLDPSGSMNIYLVLDGSDSIGASNFTGAKKCLVNLIEKVASYGVKPRYGLVTYATYPKIWVKVSEADSSNADWVTKQLNEINYEDHKLKSGTNTKKALQAVYSMMSWPDDVPPEGWNRTRHVIILMTDGLHNMGGDPITVIDEIRDLLYIGKDRKNPREDYLDVYVFGVGPLVNQVNINALASKKDNEQHVFKVKDMENLEDVFYQMIDESQSLSLCGMVWEHRKGTDYHKQPWQAKISVIRPSKGHESCMGAVVSEYFVLTAAHCFTVDDKEHSIKVSVGGEKRDLEIEVVLFHPNYNINGKKEAGIPEFYDYDVALIKLKNKLKYGQTIRPICLPCTEGTTRALRLPPTTTCQQQKEELLPAQDIKALFVSEEEKKLTRKEVYIKNGDKKGSCERDAQYAPGYDKVKDISEVVTPRFLCTGGVSPYADPNTCRGDSGGPLIVHKRSRFIQVGVISWGVVDVCKNQKRQKQVPAHARDFHINLFQVLPWLKEKLQDEDLGFL", "values": [{"measurement": "percentage of EdU-negative", "setting": "hTERT-HMEC; [3]", "value": "5 ± 0.34", "unit": "%"}, {"measurement": "percentage of EdU-negative", "setting": "hTERT-HMEC; [4]", "value": "5.82 ± 0.94", "unit": "%"}, {"measurement": "percentage of EdU-negative", "setting": "MCF7; [3]", "value": "24.23 ± 0.21", "unit": "%"}, {"measurement": "percentage of EdU-negative", "setting": "MCF7; [4]", "value": "25.3 ± 1.3", "unit": "%"}]}
{"sequence": "MPQLYIYIRLLGAYLFIISRVQGQNLDSMLHGTGMKSDSDQKKSENGVTLAPEDTLPFLKCYCSGHCPDDAINNTCITNGHCFAIIEEDDQGETTLASGCMKYEGSDFQCKDSPKAQLRRTIECCRTNLCNQYLQPTLPPVVIGPFFDGSIRWLVLLISMAVCIIAMIIFSSCFCYKHYCKSISSRRRYNRDLEQDEAFIPVGESLKDLIDQSQSSGSGSGLPLLVQRTIAKQIQMVRQVGKGRYGEVWMGKWRGEKVAVKVFFTTEEASWFRETEIYQTVLMRHENILGFIAADIKGTGSWTQLYLITDYHENGSLYDFLKCATLDTRALLKLAYSAACGLCHLHTEIYGTQGKPAIAHRDLKSKNILIKKNGSCCIADLGLAVKFNSDTNEVDVPLNTRVGTKRYMAPEVLDESLNKNHFQPYIMADIYSFGLIIWEMARRCITGGIVEEYQLPYYNMVPSDPSYEDMREVVCVKRLRPIVSNRWNSDECLRAVLKLMSECWAHNPASRLTALRIKKTLAKMVESQDVKI", "values": [{"measurement": "percentage of EdU-negative", "setting": "hTERT-HMEC; [5]", "value": "4.6126 ± 0.0036", "unit": "%"}, {"measurement": "percentage of EdU-negative", "setting": "hTERT-HMEC; [6]", "value": "5.09 ± 0.12", "unit": "%"}, {"measurement": "percentage of EdU-negative", "setting": "MCF7; [5]", "value": "25.5 ± 3.1", "unit": "%"}, {"measurement": "percentage of EdU-negative", "setting": "MCF7; [6]", "value": "26.6 ± 0.53", "unit": "%"}]}
{"sequence": "MDSLASLVLCGVSLLLSGTVEGAMDLILINSLPLVSDAETSLTCIASGWRPHEPITIGRDFEALMNQHQDPLEVTQDVTREWAKKVVWKREKASKINGAYFCEGRVRGEAIRIRTMKMRQQASFLPATLTMTVDKGDNVNISFKKVLIKEEDAVIYKNGSFIHSVPRHEVPDILEVHLPHAQPQDAGVYSARYIGGNLFTSAFTRLIVRRCEAQKWGPECNHLCTACMNNGVCHEDTGECICPPGFMGRTCEKACELHTFGRTCKERCSGQEGCKSYVFCLPDPYGCSCATGWKGLQCNEACHPGFYGPDCKLRCSCNNGEMCDRFQGCLCSPGWQGLQCEREGIQRMTPKIVDLPDHIEVNSGKFNPICKASGWPLPTNEEMTLVKPDGTVLHPKDFNHTDHFSVAIFTIHRILPPDSGVWVCSVNTVAGMVEKPFNISVKVLPKPLNAPNVIDTGHNFAVINISSEPYFGDGPIKSKKLLYKPVNHYEAWQHIQVTNEIVTLNYLEPRTEYELCVQLVRRGEGGEGHPGPVRRFTTASIGLPPPRGLNLLPKSQTTLNLTWQPIFPSSEDDFYVEVERRSVQKSDQQNIKVPGNLTSVLLNNLHPREQYVVRARVNTKAQGEWSEDLTAWTLSDILPPQPENIKISNITHSSAVISWTILDGYSISSITIRYKVQGKNEDQHVDVKIKNATITQYQLKGLEPETAYQVDIFAENNIGSSNPAFSHELVTLPESQAPADLGGGKMLLIAILGSAGMTCLTVLLAFLIILQLKRANVQRRMAQAFQNVREEPAVQFNSGTLALNRKVKNNPDPTIYPVLDWNDIKFQDVIGEGNFGQVLKARIKKDGLRMDAAIKRMKEYASKDDHRDFAGELEVLCKLGHHPNIINLLGACEHRGYLYLAIEYAPHGNLLDFLRKSRVLETDPAFAIANSTASTLSSQQLLHFAADVARGMDYLSQKQFIHRDLAARNILVGENYVAKIADFGLSRGQEVYVKKTMGRLPVRWMAIESLNYSVYTTNSDVWSYGVLLWEIVSLGGTPYCGMTCAELYEKLPQGYRLEKPLNCDDEVYDLMRQCWREKPYERPSFAQILVSLNRMLEERKTYVNTTLYEKFTYAGIDCSAEEAA", "values": [{"measurement": "percentage of EdU-negative", "setting": "hTERT-HMEC; protein concentration 0.028 µM", "value": "4.38 ± 0.76", "unit": "%"}, {"measurement": "percentage of EdU-negative", "setting": "hTERT-HMEC; protein concentration 0.28 µM", "value": "12.4 ± 1.5", "unit": "%"}, {"measurement": "percentage of EdU-negative", "setting": "MCF7; protein concentration 0.028 µM", "value": "25.5 ± 2.3", "unit": "%"}, {"measurement": "percentage of EdU-negative", "setting": "MCF7; protein concentration 0.28 µM", "value": "31.6 ± 1.1", "unit": "%"}]}
{"sequence": "MSSTLPALLCVGLCLSQRISAQQQTLPKPFIWAEPHFMVPKEKQVTICCQGNYGAVEYQLHFEGSLFAVDRPKPPERINKVQFYIPDMNSRMAGQYSCIYRVGELWSEPSNLLDLVVTEMYDTPTLSVHPGPEVISGEKVTFYCRLDTATSMFLLLKEGRSSHVQRGYGKVQAEFPLGPVTTAHRGTYRCFGSYNNHAWSFPSEPVKLLVTGDIENTSLAPEDPTFPADTWGTYLLTTETGLQKDHALWDHTAQNLLRMGLAFLVLVALVWFLVEDWLSRKRTRERASRASTWEGRRRLNTQTL", "values": [{"measurement": "percentage of EdU-negative", "setting": "hTERT-HMEC; [7]", "value": "4.59 ± 0.52", "unit": "%"}, {"measurement": "percentage of EdU-negative", "setting": "hTERT-HMEC; protein concentration 0.225 µM", "value": "5.14 ± 0.081", "unit": "%"}, {"measurement": "percentage of EdU-negative", "setting": "MCF7; [7]", "value": "25.9 ± 2.3", "unit": "%"}, {"measurement": "percentage of EdU-negative", "setting": "MCF7; protein concentration 0.225 µM", "value": "27.7 ± 1.2", "unit": "%"}]}
{"sequence": "MITEGAQAPRLLLPPLLLLLTLPATGSDPVLCFTQYEESSGKCKGLLGGGVSVEDCCLNTAFAYQKRSGGLCQPCRSPRWSLWSTWAPCSVTCSEGSQLRYRRCVGWNGQCSGKVAPGTLEWQLQACEDQQCCPEMGGWSGWGPWEPCSVTCSKGTRTRRRACNHPAPKCGGHCPGQAQESEACDTQQVCPTHGAWATWGPWTPCSASCHGGPHEPKETRSRKCSAPEPSQKPPGKPCPGLAYEQRRCTGLPPCPVAGGWGPWGPVSPCPVTCGLGQTMEQRTCNHPVPQHGGPFCAGDATRTHICNTAVPCPVDGEWDSWGEWSPCIRRNMKSISCQEIPGQQSRGRTCRGRKFDGHRCAGQQQDIRHCYSIQHCPLKGSWSEWSTWGLCMPPCGPNPTRARQRLCTPLLPKYPPTVSMVEGQGEKNVTFWGRPLPRCEELQGQKLVVEEKRPCLHVPACKDPEEEEL", "values": [{"measurement": "percentage of EdU-negative", "setting": "hTERT-HMEC; [8]", "value": "5.11 ± 0.52", "unit": "%"}, {"measurement": "percentage of EdU-negative", "setting": "hTERT-HMEC; [9]", "value": "6.16 ± 1", "unit": "%"}, {"measurement": "percentage of EdU-negative", "setting": "MCF7; [8]", "value": "26.24 ± 0.22", "unit": "%"}, {"measurement": "percentage of EdU-negative", "setting": "MCF7; [9]", "value": "23.9 ± 2.2", "unit": "%"}]}
